For this assay, the target named is N-terminal truncated recombinant human PDE7B enzyme (Homo sapiens (Human), UniProt Q9NP56). Description: biochemical.
As a reminder, the IC50 is the concentration at which inhibition is half-maximal. With `O=C1Nc2c(Cl)cc3cc(C(=O)NCc4ccncc4F)oc3c2C2(CCCCC2)N1` [Example 355, 5′-Chloro-N-[(3-fluoropyridin-4-yl)methyl]-7′-oxo-7′,8′-dihydro-6′H-spiro[cyclohexane-1,9′-furo[2,3-f]quinazoline]-2′-carboxamide], the IC50 lay within 0.01 to 0.1 µM. Under `O=C1Nc2c(Cl)cc3cc(C(=O)N(CC4CCC4)CC4CCCO4)oc3c2C2(CCCCC2)N1` (stereo not drawn) [Example 356, 5′-Chloro-N-(cyclobutylmethyl)-7′-oxo-N-(oxolan-2-ylmethyl)-7′,8′-dihydro-6′H-spiro[cyclohexane-1,9′-furo[2,3-f]quinazoline]-2′-carboxamide] stands 0.01 to 0.1 µM; under `O=C1Nc2c(Cl)cc3cc(C(=O)N4CCN(Cc5ccco5)CC4)oc3c2C2(CCCCC2)N1` [Example 357, 5′-Chloro-2′-[4-(furan-2-ylmethyl)piperazine-1-carbonyl]-7′,8′-dihydro-6′H-spiro[cyclohexane-1,9′-furo[2,3-f]quinazoline]-7′-one], 0.01 to 0.1 µM. Under `Cn1cc(CNC(=O)c2cc3cc(Cl)c4c(c3o2)C2(CCCCC2)NC(=O)N4)cn1` [Example 358, 5′-Chloro-N-[(1-methyl-1H-pyrazol-4-yl)methyl]-7′-oxo-7′,8′-dihydro-6′H-spiro[cyclohexane-1,9′-furo[2,3-f]quinazoline]-2′-carboxamide] stands 0.01 to 0.1 µM. The figure for `O=C1Nc2c(Cl)cc3cc(C(=O)NC4(c5ccccn5)CC4)oc3c2C2(CCCCC2)N1` [Example 359, 5′-Chloro-7′-oxo-N-[1-(pyridin-2-yl)cyclopropyl]-7′,8′-dihydro-6′H-spiro[cyclohexane-1,9′-furo[2,3-f]quinazoline]-2′-carboxamide] is 0.01 to 0.1 µM. Regarding `CC1(NC(=O)c2cc3cc(Cl)c4c(c3o2)C2(CCCCC2)NC(=O)N4)CCOCC1` [Example 360, 5′-Chloro-N-(4-methyloxan-4-yl)-7′-oxo-7′,8′-dihydro-6′H-spiro[cyclohexane-1,9′-furo[2,3-f]quinazoline]-2′-carboxamide], the IC50 is 0.01 to 0.1 µM. The figure for `CCOCC1(CNC(=O)c2cc3cc(Cl)c4c(c3o2)C2(CCCCC2)NC(=O)N4)CC1` [Example 361, 5′-Chloro-N-{[1-(ethoxymethyl)cyclopropyl]methyl}-7′-oxo-7′,8′-dihydro-6′H-spiro[cyclohexane-1,9′-furo[2,3-f]quinazoline]-2′-carboxamide] is 0.01 to 0.1 µM; for `O=C1Nc2c(Cl)cc3cc(C(=O)N4CCN(C(=O)c5ccccc5)CC4)oc3c2C2(CCCCC2)N1` [Example 362, 2′-(4-Benzoylpiperazine-1-carbonyl)-5′-chloro-7′,8′-dihydro-6′H-spiro[cyclohexane-1,9′-furo[2,3-f]quinazoline]-7′-one] it is 0.01 to 0.1 µM.

With `O=C1Nc2c(Cl)cc3cc(C(=O)N4CCN(C5CC6CCC5C6)CC4)oc3c2C2(CCCCC2)N1` (stereo not drawn) [Example 363, 2′-(4-{Bicyclo[2.2.1]heptan-2-yl}piperazine-1-carbonyl)-5′-chloro-7′,8′-dihydro-6′H-spiro[cyclohexane-1,9′-furo[2,3-f]quinazoline]-7′-one], the IC50 is 0.01 to 0.1 µM. The figure for `Cn1cncc1CNC(=O)c1cc2cc(Cl)c3c(c2o1)C1(CCCCC1)NC(=O)N3` [Example 364, 5′-Chloro-N-[(1-methyl-1H-imidazol-5-yl)methyl]-7′-oxo-7′,8′-dihydro-6′H-spiro[cyclohexane-1,9′-furo[2,3-f]quinazoline]-2′-carboxamide] is 0.01 to 0.1 µM. The figure for `O=C1Nc2c(Cl)cc3cc(C(=O)NCC(=O)N4CCCCC4)oc3c2C2(CCCCC2)N1` [Example 365, 5′-Chloro-7′-oxo-N-[2-oxo-2-(piperidin-1-yl)ethyl]-7′,8′-dihydro-6′H-spiro[cyclohexane-1,9′-furo[2,3-f]quinazoline]-2′-carboxamide] is 0.1 to 1 µM; for `O=C1Nc2c(Cl)cc3cc(C(=O)N4CC(O)C4)oc3c2C2(CCCCC2)N1` [Example 366, 5′-Chloro-2′-(3-hydroxyazetidine-1-carbonyl)-7′,8′-dihydro-6′H-spiro[cyclohexane-1,9′-furo[2,3-f]quinazoline]-7′-one] it is 0.1 to 1 µM; for `O=C1Nc2c(Cl)cc3cc(C(=O)NCc4ccc(C(F)(F)F)cn4)oc3c2C2(CCCCC2)N1` [Example 367, 5′-Chloro-7′-oxo-N-{[5-(trifluoromethyl)pyridin-2-yl]methyl}-7′,8′-dihydro-6′H-spiro[cyclohexane-1,9′-furo[2,3-f]quinazoline]-2′-carboxamide] it is 0.01 to 0.1 µM. Under `O=C1Nc2c(Cl)cc3cc(C(=O)NC4(C5CCOCC5)CC4)oc3c2C2(CCCCC2)N1` [Example 368, 5′-Chloro-N-[1-(oxan-4-yl)cyclopropyl]-7′-oxo-7′,8′-dihydro-6′H-spiro[cyclohexane-1,9′-furo[2,3-f]quinazoline]-2′-carboxamide] stands 0.01 to 0.1 µM. Regarding `CCN(CC)C(=O)c1cc2cc(Cl)c3c(c2o1)C1(CCCCC1)NC(=O)N3` [Example 370, 5′-Chloro-N,N-diethyl-7′-oxo-7′,8′-dihydro-6′H-spiro[cyclohexane-1,9′-furo[2,3-f]quinazoline]-2′-carboxamide], the IC50 was 0.01 to 0.1 µM.

Consider `CN1CCC(NC(=O)c2cc3cc(Cl)c4c(c3o2)C2(CCCCC2)NC(=O)N4)CC1=O` (stereo not drawn) [Example 371, 5′-Chloro-N-(1-methyl-2-oxopiperidin-4-yl)-7′-oxo-7′,8′-dihydro-6′H-spiro[cyclohexane-1,9′-furo[2,3-f]quinazoline]-2′-carboxamide], for which the IC50 was 0.01 to 0.1 µM. Under `O=C1Nc2c(Cl)cc3cc(C(=O)N4C[C@@H]5[C@H](C4)[C@H]5c4ccccn4)oc3c2C2(CCCCC2)N1` [Example 372, 5′-Chloro-2′-[(1R,5S,6S)-6-(pyridin-2-yl)-3-azabicyclo[3.1.0]hexane-3-carbonyl]-7′,8′-dihydro-6′H-spiro[cyclohexane-1,9′-furo[2,3-f]quinazoline]-7′-one] stands 0.01 to 0.1 µM; under `O=C1Nc2c(Cl)cc3cc(C(=O)NCc4cccc(F)n4)oc3c2C2(CCCCC2)N1` [Example 373, 5′-Chloro-N-[(6-fluoropyridin-2-yl)methyl]-7′-oxo-7′,8′-dihydro-6′H-spiro[cyclohexane-1,9′-furo[2,3-f]quinazoline]-2′-carboxamide], 0.01 to 0.1 µM; under `CCN(C)C(=O)c1cc2cc(Cl)c3c(c2o1)C1(CCCCC1)NC(=O)N3` [Example 374, 5′-Chloro-N-ethyl-N-methyl-7′-oxo-7′,8′-dihydro-6′H-spiro[cyclohexane-1,9′-furo[2,3-f]quinazoline]-2′-carboxamide], 0.01 to 0.1 µM. Regarding `CC1(C)C2CN(C(=O)c3cc4cc(Cl)c5c(c4o3)C3(CCCCC3)NC(=O)N5)CC21` (stereo not drawn) [Example 375, 5′-Chloro-2′-{6,6-dimethyl-3-azabicyclo[3.1.0]hexane-3-carbonyl}-7′,8′-dihydro-6′H-spiro[cyclohexane-1,9′-furo[2,3-f]quinazoline]-7′-one], the IC50 lay within 0.1 to 1 µM. The figure for `O=C1Nc2c(Cl)cc3cc(C(=O)N4CCC5C(C4)C5(F)F)oc3c2C2(CCCCC2)N1` (stereo not drawn) [Example 376, 5′-Chloro-2′-{7,7-difluoro-3-azabicyclo[4.1.0]heptane-3-carbonyl}-7′,8′-dihydro-6′H-spiro[cyclohexane-1,9′-furo[2,3-f]quinazoline]-7′-one] is 0.01 to 0.1 µM; for `O=C1Nc2c(Cl)cc3cc(C(=O)N4CC5C(C4)C5(F)F)oc3c2C2(CCCCC2)N1` (stereo not drawn) [Example 377, 5′-Chloro-2′-{6,6-difluoro-3-azabicyclo[3.1.0]hexane-3-carbonyl}-7′,8′-dihydro-6′H-spiro[cyclohexane-1,9′-furo[2,3-f]quinazoline]-7′-one] it is 0.01 to 0.1 µM; for `CC(C)N(CC1CCC(=O)N1)C(=O)c1cc2cc(Cl)c3c(c2o1)C1(CCCCC1)NC(=O)N3` (stereo not drawn) [Example 379, 5′-Chloro-7′-oxo-N-[(5-oxopyrrolidin-2-yl)methyl]-N-(propan-2-yl)-7′,8′-dihydro-6′H-spiro[cyclohexane-1,9′-furo[2,3-f]quinazoline]-2′-carboxamide] it is 0.01 to 0.1 µM. Under `O=C1Nc2c(Cl)cc3cc(C(=O)NCCc4ccc5c(c4)CCO5)oc3c2C2(CCCCC2)N1` [Example 380, 5′-Chloro-N-[2-(2,3-dihydro-1-benzofuran-5-yl)ethyl]-7′-oxo-7′,8′-dihydro-6′H-spiro[cyclohexane-1,9′-furo[2,3-f]quinazoline]-2′-carboxamide] stands 0.1 to 1 µM; under `O=C1Nc2c(Cl)cc3cc(C(=O)NC4CCC(F)(F)CC4)oc3c2C2(CCCCC2)N1` [Example 381, 5′-Chloro-N-(4,4-difluorocyclohexyl)-7′-oxo-7′,8′-dihydro-6′H-spiro[cyclohexane-1,9′-furo[2,3-f]quinazoline]-2′-carboxamide], 0.01 to 0.1 µM; under `O=C1Nc2c(Cl)cc3cc(C(=O)NC45CC(C4)C5)oc3c2C2(CCCCC2)N1` [Example 382, N-{bicyclo[1.1.1]pentan-1-yl}-5′-chloro-7′-oxo-7′,8′-dihydro-6′H-spiro[cyclohexane-1,9′-furo[2,3-f]quinazoline]-2′-carboxamide], 0.01 to 0.1 µM. As for `O=C1Nc2c(Cl)cc3cc(C(=O)N[C@H]4CC[C@@H](F)C4)oc3c2C2(CCCCC2)N1` [Example 383, 5′-Chloro-N-[(1S,3R)-3-fluorocyclopentyl]-7′-oxo-7′,8′-dihydro-6′H-spiro[cyclohexane-1,9′-furo[2,3-f]quinazoline]-2′-carboxamide], the IC50 was in the range of 0.1 to 1 µM. Under `C=CCN(C)C(=O)c1cc2cc(Cl)c3c(c2o1)C1(CCCCC1)NC(=O)N3` [Example 384, 5′-Chloro-N-methyl-7′-oxo-N-(prop-2-en-1-yl)-7′,8′-dihydro-6′H-spiro[cyclohexane-1,9′-furo[2,3-f]quinazoline]-2′-carboxamide] stands 0.01 to 0.1 µM; under `C#CCNC(=O)c1cc2cc(Cl)c3c(c2o1)C1(CCCCC1)NC(=O)N3` [Example 385, 5′-Chloro-7′-oxo-N-(prop-2-yn-1-yl)-7′,8′-dihydro-6′H-spiro[cyclohexane-1,9′-furo[2,3-f]quinazoline]-2′-carboxamide], 0.01 to 0.1 µM. Under `CCn1ncc2c(c1=O)CCN(C(=O)c1cc3cc(Cl)c4c(c3o1)C1(CCCCC1)NC(=O)N4)C2` [Example 386, 5′-Chloro-2′-{2-ethyl-1-oxo-1H,2H,5H,6H,7H,8H-pyrido[3,4-d]pyridazine-6-carbonyl}-7′,8′-dihydro-6′H-spiro[cyclohexane-1,9′-furo[2,3-f]quinazoline]-7′-one] stands 0.1 to 1 µM.

The record behind these values is patent US11685745B2, “Substituted benzoxazole and benzofuran compounds as PDE7 inhibitors” (Dart NeuroScience, LLC, priority 2017, dated 2023).
